# Measurements from PubChem BioAssay AID488969 (Vanderbilt High Throughput Screening Facility, 2010).
# The full ranking holds about 110,000 compounds; the median of “z-score” is about -0.1, and the highest 2% start at about 2. The list shows a part of the results. Activity calls are given as the source filed them.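 Rule for the calls: active = z-score in the third read window above 3 or below -3; inactive = the rest.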
# Target: Metabotropic glutamate receptor 8 (Rattus norvegicus) (UniProt P70579)
# Experiment: mGluR8 Gi/Go-coupled signaling modulation – cell-based, rat, thallium flux, HTS, primary screen (AID 488969)
# Conditions: HEK293 rat mGluR8, GIRK (G protein-gated inwardly rectifying potassium channel) thallium flux, FluoZin2; at 10 µM; stronger effect = higher value; submaximal glutamate (EC20) added with thallium
# UniProt P70579, sequence (P70579 whole entry, looked up): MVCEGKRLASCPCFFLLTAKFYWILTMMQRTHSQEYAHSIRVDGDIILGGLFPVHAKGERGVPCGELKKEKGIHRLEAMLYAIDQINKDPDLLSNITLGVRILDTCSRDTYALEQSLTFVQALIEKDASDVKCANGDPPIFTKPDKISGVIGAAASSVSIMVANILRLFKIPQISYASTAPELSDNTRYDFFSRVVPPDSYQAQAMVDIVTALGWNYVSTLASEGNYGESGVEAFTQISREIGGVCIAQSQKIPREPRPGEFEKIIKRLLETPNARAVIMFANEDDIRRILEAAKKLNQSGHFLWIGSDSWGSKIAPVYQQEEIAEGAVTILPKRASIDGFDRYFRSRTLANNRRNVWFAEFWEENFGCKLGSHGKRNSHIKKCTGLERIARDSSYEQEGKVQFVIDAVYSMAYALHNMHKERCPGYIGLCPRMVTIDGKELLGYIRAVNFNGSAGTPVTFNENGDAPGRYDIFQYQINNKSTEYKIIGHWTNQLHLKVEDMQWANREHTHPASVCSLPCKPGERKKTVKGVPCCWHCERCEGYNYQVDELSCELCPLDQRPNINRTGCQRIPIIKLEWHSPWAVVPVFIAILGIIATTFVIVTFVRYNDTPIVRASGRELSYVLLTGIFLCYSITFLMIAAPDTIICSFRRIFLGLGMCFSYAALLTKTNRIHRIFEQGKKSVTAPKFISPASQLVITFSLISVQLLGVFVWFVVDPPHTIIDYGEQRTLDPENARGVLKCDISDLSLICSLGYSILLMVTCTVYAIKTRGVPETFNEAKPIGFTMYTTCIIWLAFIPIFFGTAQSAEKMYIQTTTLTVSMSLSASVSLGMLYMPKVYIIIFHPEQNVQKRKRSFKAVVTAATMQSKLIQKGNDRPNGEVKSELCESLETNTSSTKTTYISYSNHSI
row,Compound,z-score
1,CC(C)(C)NC(=O)c1cccc(NC(=O)c2ccco2)c1,0.16
2,Cc1ccc2cc(C#N)c(SCc3nnc(-c4ccccc4[N+](=O)[O-])o3)nc2c1,-0.164
3,Cc1onc(-c2ccccc2Cl)c1C(=O)NCc1ccccc1,0.341
4,COCC(C)n1c(C)cc(C(=O)COC(=O)c2nc3nc(C)cc(C)n3n2)c1C (centres undefined),-0.517
5,O=C(Nc1cc(Sc2ccccn2)cc([N+](=O)[O-])c1)c1cccc(F)c1,-0.502
6,O=C(Nc1nnc(C23CC4CC(CC(C4)C2)C3)s1)c1ccc(N2C(=O)CCC2=O)cc1,-0.327
7,CCCCNC(=O)CN(C1CCCCC1)S(C)(=O)=O,0.405
8,Cn1c(=O)c2c(ncn2CC(=O)N2CCN(c3cccc(Cl)c3)CC2)n(C)c1=O,-0.38
9,O=C(O)CCCC(=O)Nc1ccc(C(=O)NCc2cccnc2)cc1,1.8
10,S=C(Nc1cccc(Cl)c1)N1CCOCC1,-0.312
11,COc1ccc(-n2nc3cc(C)c(NC(=O)c4cccnc4)cc3n2)cc1,0.506
12,O=C(c1cc2c(s1)CCCC2)n1cccn1,-0.397
13,Cc1ccc(C2CC2c2n[nH]c(=S)n2-c2ccc(C)cc2)cc1 (centres undefined),2.34
14,Cc1ccc(-c2[nH]ncc2/C=N/n2c(COc3ccccc3)nc3ccccc3c2=O)cc1,-0.0421
15,CC(OC(=O)Cc1c(F)cccc1Cl)C(=O)NCCC1=CCCCC1 (centres undefined),0.0847
16,O=C(O)CCC(=O)N1CCN(c2nc(-c3ccccc3Cl)c3cc(Br)ccc3n2)CC1,-0.623
17,Cc1ccc(S(=O)(=O)/C(C#N)=C/c2c(N3CCC(C(N)=O)CC3)nc3ccccn3c2=O)cc1,-0.315
18,O=c1cc(-c2ccccc2F)oc2ccccc12,-0.341
19,CC(C)c1ccc(CCNC(=O)c2ccc([N+](=O)[O-])cc2)cc1,-0.0486
20,CCc1ccc(NC(=O)CC2C(=O)NCCN2C(=S)Nc2ccccc2)cc1 (centres undefined),-0.127
21,Cc1cc(SCC(=O)Nc2c(C)n(C)n(-c3ccccc3)c2=O)n2c(nc3ccccc32)c1C#N,0.342
22,Cc1ccc(S(=O)(=O)CCc2nnc(NC(=O)c3cccs3)s2)cc1,0.0716

row,Compound,z-score
1,CC1=CC=CN2CC(O)CN=C12 (centres undefined),-0.219
2,N#Cc1c(-c2cccs2)nc(SCC(=O)c2cccs2)[nH]c1=O,-0.648
3,Cc1onc(-c2ccccc2)c1C(=O)Nc1cccc(OC(C)C)c1,0.45
4,O=S(=O)(Nc1cccc(-c2nc3cccnc3s2)c1)c1ccc2c(c1)OCCO2,-0.38
5,Clc1ccc(Nc2nc(-c3cccnc3)cs2)cc1,-0.11
6,COC(=O)CSc1[nH]c(=O)cc(C)c1C#N,-0.145
7,CC/C(=N\NC(=O)CSCc1ccccc1Br)c1ccc2c(c1)OCCO2,0.132
8,COc1ccc(CCNC(=O)CCCCCN2C(=O)c3ccccc3C2=O)cc1,0.18
9,CCNC(=O)COc1ccc(S(=O)(=O)Nc2ccccc2)cc1,0.695
10,Cc1ccc(N2CCN(c3ccc(C)cc3)C2c2cccnc2)cc1,0.0674
11,COc1ccc(OCCCC(=O)Oc2ccc(OC)cc2)cc1,-0.331
12,O=C(CN1CCN(Cc2ccccc2)CC1)NC(=O)NC1CCCCC1,-0.456
13,COc1ccccc1/C=C/C(=O)NCC(=O)N/N=C/c1cc(Br)ccc1OC,-0.268
14,CC(C)(CO)NS(=O)(=O)c1ccc2c(c1)oc(=O)c1cc(S(=O)(=O)NC(C)(C)CO)ccc12,-0.0653
15,OCCNC1=NCCN1,-0.23
16,Cc1cc(O)c(C(C[N+](=O)[O-])c2ccc(Cl)cc2Cl)c(=O)o1 (centres undefined),active: -4.08
17,Cc1cccc2c3nc4ccccc4nc3n(CCCN3C(=O)c4ccccc4C3=O)c12,0.773
18,CCCOc1ccc(/C(O)=C2/C(=O)C(=O)N(CCCn3ccnc3)C2c2cccs2)cc1 (centres undefined),-0.299
19,CCN(CC)C(=O)CSc1ncnc2c1cnn2Cc1ccccc1,0.13
20,COC(=O)C1=C(C)NC2=C(C(=O)CC(C)(C)C2)C1c1ccsc1 (centres undefined),0.803
21,COC(=O)c1ccccc1NC(=O)N1CCCC1,0.518
22,CCOC(=O)C1CCCN(CC(O)COc2ccc(OC)cc2C(C)(C)C)C1 (centres undefined),0.707

row,Compound,z-score
1,C=CCOC(=O)C1=C(C)NC(SCC(=O)OCC)=C(C#N)C1c1ccc(O)c(OC)c1 (centres undefined),-0.622
2,Cc1ccc(C(=O)NC(C)c2ccc(F)cc2)cc1 (centres undefined),-0.249
3,COc1ccc2nc(N3CCOCC3)cc(C)c2c1,0.0652
4,Cc1ccnc(N/C=C(\C#N)c2nc(-c3cccc(Br)c3)cs2)c1,-0.134
5,CCC(C)(C)n1nnnc1C(c1ccc2ncccc2c1)N1CCN(Cc2ccc3c(c2)OCO3)CC1 (centres undefined),-0.494
6,COc1ccc2c(c1)CCc1c(C(=O)N3CCCc4ccccc43)noc1-2,-0.446
7,COC(=O)C(CC(C)C)NC(=O)c1ccc([N+](=O)[O-])c(C)c1 (centres undefined),2.9
8,COCCNC(=O)CCn1c(=O)oc2ccccc21,0.385
9,CCOC(=O)Cn1nnc2c(sc3nc4c(c(-c5ccc(Cl)cc5)c32)CCC4)c1=O,-0.217
10,CC(C)c1ccc(/C=c2\sc3nc(-c4ccncc4)nn3c2=O)cc1,-0.232
11,CCn1cc(CNC(=O)c2c(-c3c(Cl)cccc3Cl)noc2C)c(C)n1,1.02
12,CC(C)c1ccccc1-n1c(SCC(=O)N2CCc3ccccc3C2)nc2ccccc2c1=O,-0.419
13,Cc1ccc(-n2c(C)c3c(C)nnc(C)c3c2C)cc1C,-0.385
14,Cc1ccccc1OC(=O)n1c(=S)oc2cc(Cl)ccc21,1.42
15,Cc1oc2c(c1C(=O)NCCCC(=O)O)CCCC2,-0.129
16,CC(C)CCOC(=O)/C(=C/c1ccco1)NC(=O)/C=C/c1ccccc1,-0.342
17,Cn1ccnc1Sc1ccc(/C=N/NC(=O)c2ccccc2[N+](=O)[O-])cc1[N+](=O)[O-],-0.639
18,CCOC(=O)N1CCN(C(=O)CSCc2ccccc2)CC1,-0.13
19,CC1(C)C(=O)N(OCc2ccccc2)C(C)(C)C(=O)N1OCc1ccccc1,-0.427
20,COc1ccccc1-n1cnc2cc(C(=O)NCC3CCCO3)ccc21 (centres undefined),-0.481
21,COc1cc(-c2nc(-c3ccc(Br)o3)no2)cc(OC)c1OC,-0.294
22,CC(=O)N(Cc1ccc(F)cc1)C1=C(NCc2ccccc2)C(=O)c2ccccc2C1=O,2.03

row,Compound,z-score
1,O=C(O)CC1NC(=O)N(c2ccccc2)C1=O (centres undefined),-0.116
2,FC(F)(F)c1ccc2nnc(-c3c(Cl)cccc3Cl)n2c1,active: -3.58
3,CCOC(=O)c1oc2cc(C)cc(O)c2c(=O)c1-c1csc(C)n1,-0.268
4,COc1cc2c(cc1OC)C(c1ccccc1F)OC(=O)C2 (centres undefined),-0.198
5,Cc1ccc(CNc2ccc3c(c2)OCO3)c(C)c1,-0.493
6,O=C1NC(=O)C(CC(=O)N(Cc2ccco2)C2(C(=O)NC3CCCC3)CCCCC2)N1 (centres undefined),-0.354
7,c1ccc(Cc2nnc(Sc3ccccc3)c3ccccc23)cc1,-0.622
8,CC(=O)c1cccc(S(=O)(=O)N(CCCO)Cc2cc3ccc(C)cc3[nH]c2=O)c1,-0.396
9,CN(CCO)c1cc(Sc2nc3ccccc3s2)c2nonc2c1[N+](=O)[O-],0.935
10,CCSC1=N/C(=C\c2ccccc2)C(=O)N1,-0.297
11,COc1ccc(CCNC(=O)CSc2nc3cc(Cl)ccc3o2)cc1OC,-0.127
12,COC(=O)c1ccc(Cn2nnc3ccccc3c2=O)o1,-0.379
13,Cc1cc(C)cc(OCC(=O)NC2=NCCS2)c1,-0.0355
14,N#CNC1=NCN(CCc2ccccc2)CN1,-0.0746
15,Cc1ccc(-c2nnc(N3CCCCC3)c3ccccc23)cc1S(=O)(=O)NCC1CCCO1 (centres undefined),-0.815
16,CC1CC(NC(=O)Cc2ccc(Br)cc2)CC(C)(C)C1 (centres undefined),-0.226
17,COc1cc2nc(CN3C(=O)c4ccccc4C3=O)oc(=O)c2cc1OC,-0.733
18,Cc1cccc(-n2c(SCc3cc(=O)n4ccsc4n3)nc3ccccc32)c1,-0.736
19,CCCCOc1ccc(N2C(=O)CC(N(O)c3ccccc3)C2=O)cc1 (centres undefined),-0.0742
20,COC1(OC)C(/C=C/c2ccc(Cl)cc2)C(C#N)(C#N)C1(OC)OC (centres undefined),-0.422
21,Cc1ccc(-c2nc3ccccc3[nH]2)cc1NC(=O)/C=C/c1ccco1,-0.472
22,O=C1c2cccnc2-c2ncccc21,0.109

row,Compound,z-score
1,CSCCC(NS(=O)(=O)c1ccc(Cl)cc1)C(=O)OCC(=O)c1ccc(F)cc1 (centres undefined),-0.372
2,O=S(=O)(c1cccc(-c2nnc(SCc3nc4ccccc4s3)o2)c1)N1CCOCC1,-0.0837
3,O=C(O)C1CC=CCC1C(=O)N1CCc2ccccc21 (centres undefined),-0.0135
4,COc1cc(-c2nc(-c3ccc(NC(=O)c4ccc(Br)o4)cc3)no2)cc(OC)c1OC,-1.33
5,CC1CCc2nc(N)c(C#N)c(-c3cccnc3)c2C1 (centres undefined),0.143
6,O=C(Nc1ccccn1)c1ccc2c(c1)S(=O)(=O)c1ccccc1C2=O,0.0299
7,CN(C)c1nc(Nc2ccccc2)nc(N(C)C)n1,-0.0585
8,CCc1cc2cccc(C)c2nc1SCC(=O)NNC(=O)c1ccco1,1.88
9,O=C(Nc1nnc(C2CCCC2)s1)C1CCN(S(=O)(=O)c2ccc(Cl)cc2)CC1,-0.598
10,COc1ccc(C2C(C(C)=O)=C(O)C(=O)N2c2ccc(Br)cn2)cc1 (centres undefined),-0.207
11,COc1ccc(CN(C2CCCCC2C)S(=O)(=O)c2ccc(S(=O)(=O)N(C)C)cc2)cc1OC (centres undefined),0.0696
12,CCCC(c1c(C)n(C)n(-c2ccccc2)c1=O)c1c(C)n(C)n(-c2ccccc2)c1=O,active: -4.1
13,CC(=O)c1ccc(OCC(O)CN2CCN(Cc3ccccc3)CC2)cc1 (centres undefined),-0.101
14,Cc1ccc(S(=O)(=O)NC2(C(F)(F)F)NC(=O)N(C)C2=O)cc1 (centres undefined),0.0117
15,CCN1C(=O)/C(=C2/Sc3ccc(OC)cc3N2C)SC1=Nc1ccc(C)cc1,-0.0515
16,Cc1ccc(S(=O)(=O)N2CCN(C(=O)CN3CCc4ccccc4C3)CC2)cc1,-0.482
17,Cn1c(=O)c2c(SCc3cccnc3)nc(C3CC3)nc2n(C)c1=O,-0.454
18,O=C(NNC1=C(C(=O)C(F)(F)F)CCC1)c1ccccc1Cl,0.932
19,CCCCCn1c(=NC(C)=O)c(C#N)cc2c(=O)n3ccccc3nc21,0.838
20,COc1cccc(NC(=O)c2ccccc2SC)c1,-0.0887
21,O=S(=O)(c1ccccc1)c1nc(-c2ccco2)oc1N1CCCCCC1,-0.0809
